# According to PubChem BioAssay AID1347430 (National Center for Advancing Translational Sciences (NCATS), 2020):
# The whole screen tested about 91,000 compounds, of which about 130 (0.14%) were called active. Inconclusive results, whose numbers are uncertain, are shown with a selection of clear calls. Calls follow the shape of the dose curve; as a rule, active = well fitted inhibition curve with a large enough effect; inconclusive = small, poorly fitted or top-dose-only effect; inactive = flat fitted curve, though single readings scatter. A potency beside an inconclusive call is a rough fit, not a confirmed value.
# Tested on: Uracil-DNA glycosylase
# Test: Primary qHTS assay for inhibitors of Activation Induced Cytidine Deaminase (AID): UDG Counterscreen signal; also: nearly all actives have a fitted effect of over 65% in size
# Conditions: FRET deamination/UDG coupled assay, UDG read, 4 h; series mostly up to 115 µM
# Potency is read from the fitted curve at half-maximal effect; tags tell the direction and shape of the fitted curve.
row,Compound,Potency
1,COc1ccc(-n2c(C)c(C(C)=O)c3cc(OC(=O)c4ccc(C)cc4)ccc32)cc1,"inconclusive: 100 µM [inhibitor, partial curve, poor fit]"
2,COc1ccccc1-n1c(=O)c2c3c(sc2n(C)c1=O)CN(C(C)=O)CC3,"inconclusive: 79.4 µM [inhibitor, single point]"
3,CSc1cccc(NC(=O)c2cccc(Cl)c2Cl)c1,inactive
4,O=C(NCCCc1nc2ccccc2n1Cc1ccc(F)cc1)C1CCCCC1,"inconclusive: 100 µM [inhibitor, single point]"
5,Cc1ccc(Sc2c(C)nn(C(=O)COc3ccccc3)c2C)cc1,"inconclusive: 89.1 µM [inhibitor, partial curve, poor fit]"
6,Cc1ccc(Cn2nc(C)c(NC(=O)c3cc(-c4ccc(F)cc4)on3)c2C)cc1,"inconclusive: 89.1 µM [inhibitor, single point]"
7,CC(=O)c1cccc(NCC(=O)Nc2ccccc2C#N)c1,"inconclusive: 89.1 µM [inhibitor, partial curve, poor fit]"
8,CN(C)c1ccc(N=Cc2c(O)ccc3ccccc23)cc1,"inconclusive: 28.2 µM [inhibitor, partial curve]"
9,O=C(OCC(=O)N1CCC(Cc2ccccc2)CC1)c1cc(=O)c2ccccc2o1,"inconclusive: 89.1 µM [inhibitor, single point]"
10,COC(=O)Nc1ccc(C)c(C)c1,inactive
11,CC(C)Cn1c(-c2ccc(S(=O)(=O)N3CCCC3)cc2)csc1=Nc1ccccc1,"inconclusive: 89.1 µM [inhibitor, single point]"
12,Cc1ccc(NC(=O)c2cc(-c3cccs3)on2)cc1C,inactive
13,CCN1CCN(CCCNC(=O)c2cnn(-c3ccc(C)cc3)c2C2CCN(C(=O)OC(C)(C)C)CC2)CC1,inactive
14,O=C(CSc1nc(Cl)nc2nc[nH]c12)Nc1cccc(Cl)c1,inactive
15,O=C(Cc1ccc(NC(=O)N2CCCCc3ccccc32)cc1)Nc1ccccc1Br,"inconclusive: 89.1 µM [inhibitor, single point]"
16,Cc1ccc(-n2ncc(C(=O)NCCCN3CCN(C)CC3)c2C2CCN(C(=O)OC(C)(C)C)CC2)cc1,"inconclusive: 79.4 µM [inhibitor, single point]"
17,CCCCC(=O)N1CCN(c2nc3c(C)c(C)ccc3s2)CC1,"inconclusive: 89.1 µM [inhibitor, partial curve, poor fit]"
18,Cc1oc2ncn(CC(C)C)c(=O)c2c1C(=O)NCCCN1CCCCC1C (stereo not drawn),"inconclusive: 89.1 µM [inhibitor, single point]"
